Values joined by “and” are separate entries in the source; they are usually repeats but may differ in a detail not shown here. Equal entries are not always repeated. The whole screen tested about 410,000 compounds, of which about 6,400 (1.6%) were called active. Inconclusive means that the source gave no clear call. Such entries were picked first, then a sample of the others. Calls come from the whole dose curve; as a rule, active = well fitted inhibition curve with a large enough effect; inconclusive = small, poorly fitted or top-dose-only effect; inactive = no such curve, though single readings can be large or run the other way. Potencies beside an inconclusive call are fits to weak or partial responses and may not hold up.
Biological target: Glucagon-like peptide 1 receptor (Homo sapiens) (UniProt P43220)
Experiment: qHTS of GLP-1 Receptor Inverse Agonists (Inhibition Mode); note: nearly all actives have a fitted effect of over 55% in size
Details: HEK293 GLP-1R CRE-luciferase, luminescence, 24 h, GLP-1R form is constitutively active; activity change, negative = inhibition: at 38.3 µM (top of the series) unless noted
How it was run: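 Inverse agonism was detected as reduced cAMP-driven luciferase luminescence after 24 h compound treatment. The cells were HEK293 clones expressing constitutively active human GLP-1R with the reporter. Reporter-only and GPR119 cell lines served as counterscreen controls.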
% is set by controls: 0 for no effect and ±100 for the full control effect; potency is the fitted concentration of half-maximal effect; tags give direction and shape of the fitted curve.

UniProt P43220, sequence (P43220 whole entry, looked up): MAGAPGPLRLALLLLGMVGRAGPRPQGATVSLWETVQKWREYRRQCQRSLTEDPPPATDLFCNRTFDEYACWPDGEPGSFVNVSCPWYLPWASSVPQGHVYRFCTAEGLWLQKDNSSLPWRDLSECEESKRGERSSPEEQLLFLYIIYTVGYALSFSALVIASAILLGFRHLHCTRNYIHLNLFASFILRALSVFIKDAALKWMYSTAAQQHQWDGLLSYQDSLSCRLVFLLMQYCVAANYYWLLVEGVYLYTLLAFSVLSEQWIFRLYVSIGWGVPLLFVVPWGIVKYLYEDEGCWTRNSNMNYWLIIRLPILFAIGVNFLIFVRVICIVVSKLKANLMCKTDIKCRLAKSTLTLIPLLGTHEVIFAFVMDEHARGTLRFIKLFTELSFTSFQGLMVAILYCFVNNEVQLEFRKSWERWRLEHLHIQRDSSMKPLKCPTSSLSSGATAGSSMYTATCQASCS

| Compound | Potency | activity change, negative = inhibition |
| --- | --- | --- |
| CCOC(=O)C1=C(N)OC2=C(C(=O)CC(C)(C)C2)C1c1ccc(CC)s1 (stereo not given) | inconclusive: 31.6 µM [inhibitor, single point] | – |
| CCOC(=O)c1sc(NC(=O)c2cc(-c3ccc(C)cc3)nc3ccccc23)c(C#N)c1C | – | inactive: 17.9% |
| CC1CC(C)CN(C(=O)COC(=O)c2ccc3c(c2)OCCO3)C1 (stereo not given) | inconclusive: 12.6 µM [inhibitor, single point] | – |
| COc1ccc(N2C(=O)CC(Sc3nccc(C)n3)C2=O)c(OC)c1 (stereo not given) | – | inactive: 13.5% |
| COc1cc(OC)cc(C(=O)NC(=S)Nc2cccnc2)c1 | – | inactive: 0.714% |
| CSc1cccc(N2CC(C(=O)Nc3ccccc3N3CCCC3)CC2=O)c1 (stereo not given) | inconclusive: 6.31 µM [inhibitor, partial curve, poor fit] | – |
| COc1cc(Nc2ccn3nc(-c4ccccc4Cl)cc3n2)cc(OC)c1OC | inconclusive: 7.08 µM [inhibitor, partial curve, poor fit] | – |
| CCOC(=O)[C@]12CCCC=C1N(Cc1ccccc1)C(=O)[C@H](CC(=O)NCc1cccc3ccccc13)C2 | inconclusive: 10 µM [inhibitor, single point] | – |
| Cc1c(C(=O)N2CCN(c3ncccn3)CC2)oc2c(Cl)cccc12 | – | inactive: 47.7% |
| Cc1ccc(CCNC(=O)CCCn2c(=O)c3cccn3c3ccc(F)cc32)cc1 | – | inactive: -5.47% |
| O=C(Cc1cccc(C(F)(F)F)c1)NCC(c1ccco1)N1CCCCC1 (stereo not given) | inconclusive: 11.2 µM [inhibitor, single point] | – |
| O=C(N/N=C/C(Br)=C/c1ccccc1)c1cnccn1 | inconclusive: 28.2 µM [inhibitor, single point] | – |
| CCCCN(CC)CCCNC(=O)c1nn(-c2ccc(OC)cc2)c(=O)c2c1c1ccccc1n2C | – | inactive: -4.83% |
| CSc1ncccc1C(=O)OC(C)C(=O)Nc1cccc(S(=O)(=O)N2CCOCC2)c1 (stereo not given) | – | inactive: 67.8% |
| COc1cc(OC)cc(C(=O)N[C@H](C(=O)OCC(=O)Nc2ccc(C(C)C)cc2)C(C)C)c1 | inconclusive: 28.2 µM [inhibitor, single point] | – |
| Cc1ccc(CNc2nc(NCc3ccccc3)nc3ccsc23)c(C)c1 | inconclusive: 0.501 µM [inhibitor, full curve, poor fit] | – |
| O=C(NCC1COc2ccccc2O1)c1ccccc1 (stereo not given) | – | inactive: 4.06% |
| Cc1ccc(Cn2ncc3c(N4CCN(c5ccccc5C)CC4)ncnc32)cc1 | active: 3.55 µM | – |
| CCCCOC(=O)c1ccc(NC(=S)NC(=O)c2c(Cl)cnn2C)cc1 | inconclusive: 28.2 µM [inhibitor, single point] | – |
| N#C/C(=C(/O)COC(=O)COc1cccc(Br)c1)c1nc2ccccc2[nH]1 | inconclusive: 15.8 µM [inhibitor, partial curve, poor fit] | – |

| Compound | Potency | activity change, negative = inhibition |
| --- | --- | --- |
| CC1CCc2nc3ncn(Cc4cccc(F)c4)c(=O)c3cc2C1 (stereo not given) | – | inactive: 17.5% |
| C=CCC[C@@H](Cc1ccc(F)cc1)C(=O)OC[C@@H](NC(=O)[C@@H](CC=C)CC(=O)N(CCO)Cc1ccccc1)c1ccccc1 | inconclusive: 1.26 µM [inhibitor, partial curve, poor fit] | – |
| COc1ccc(C)cc1-n1c(SCC(=O)NCc2ccco2)nc2c([nH]c3ccccc32)c1=O | inconclusive: 2.24 µM [inhibitor, full curve] | – |
| CCc1ccccc1NC(=O)Cn1nnc(C(=O)NCc2cccc(OC)c2)c1N | inconclusive: 11.2 µM [inhibitor, partial curve, poor fit] and inconclusive: 28.2 µM [inhibitor, single point] | – |
| Cc1oc(-c2ccccc2Cl)nc1CS(=O)(=O)CC(=O)NCCc1ccccc1 | inconclusive: 11.2 µM [inhibitor, partial curve, poor fit] | – |
| CN(Cc1ccccc1)c1nc2c(S(=O)(=O)c3ccccc3)nnn2c2ccsc12 | – | inactive: 3.91% |
| COc1ccc(C(=O)OCc2cc(C)ccc2C)cc1S(=O)(=O)N1CCCC1 | inconclusive: 28.2 µM [inhibitor, single point] | – |
| Cc1ccc(-c2nc(-c3cccs3)c(-c3cccs3)[nH]2)cc1 | inconclusive: 1.26 µM [inhibitor, full curve, poor fit] | – |
| Cc1cc(C)cc(OCC(=O)N(Cc2ccco2)Cc2ccccc2Cl)c1 | inconclusive: 11.2 µM [inhibitor, partial curve, poor fit] | – |
| COc1ccc(NS(=O)(=O)c2cccc(C(=O)NCC3(N4CCOCC4)CCCCC3)c2)cc1 | inconclusive: 12.6 µM [inhibitor, partial curve] | – |
| C/C=C/C(=O)OCc1csc(CC(=O)Nc2ccccc2C)n1 | inconclusive: 28.2 µM [inhibitor, single point] | – |
| Cc1cc(C)c(S(=O)(=O)Nc2ccccc2C(=O)N2CCOCC2)c(C)c1 | inconclusive: 1.41 µM [inhibitor, full curve, poor fit] | – |
| COC(=O)c1c(C)oc(C)c1S(=O)(=O)NC(c1ccccc1)c1ccccc1 | inconclusive: 10 µM [inhibitor, partial curve, poor fit] | – |
| Cc1ccc(NC(=O)c2nc(S(C)(=O)=O)ncc2N(Cc2ccco2)Cc2ccco2)cc1 | inconclusive: 7.08 µM [inhibitor, partial curve, poor fit] | – |
| COC(=O)c1cccc(NC(=O)c2nn(C)c(=O)c3ccccc23)c1 | – | inactive: 3.28% |
| COc1ccc(OC)c(NC(=O)N2CCC3(CC2)Oc2ccccc2C(=O)N3Cc2ccccc2F)c1 | inconclusive: 12.6 µM [inhibitor, partial curve, poor fit] | – |
| Cc1ccc(S(=O)(=O)NNC(=O)Nc2ccc(C)c(C)c2)c(C)c1 | inconclusive: 7.94 µM [inhibitor, partial curve, poor fit] | – |
| CCOC(=O)c1ccc(NC(=S)N(CCN2CCCCCC2)Cc2cccs2)cc1 | inconclusive: 1.78 µM [inhibitor, full curve, poor fit] | – |
| CCOc1ccccc1CNC(=O)CN1C(=O)c2cccnc2Oc2ccc(C)cc21 | inconclusive: 7.08 µM [inhibitor, partial curve, poor fit] | – |
| O=C(Nc1ccc(Br)cc1)c1cc(S(=O)(=O)N2CCc3ccccc32)ccc1F | – | inactive: 8.6% |
